Data on two substances can be found in publication PMC10693172.

By UniProt entry, the sequences of proteins in these tests, tags left out.
UniProt Q08211: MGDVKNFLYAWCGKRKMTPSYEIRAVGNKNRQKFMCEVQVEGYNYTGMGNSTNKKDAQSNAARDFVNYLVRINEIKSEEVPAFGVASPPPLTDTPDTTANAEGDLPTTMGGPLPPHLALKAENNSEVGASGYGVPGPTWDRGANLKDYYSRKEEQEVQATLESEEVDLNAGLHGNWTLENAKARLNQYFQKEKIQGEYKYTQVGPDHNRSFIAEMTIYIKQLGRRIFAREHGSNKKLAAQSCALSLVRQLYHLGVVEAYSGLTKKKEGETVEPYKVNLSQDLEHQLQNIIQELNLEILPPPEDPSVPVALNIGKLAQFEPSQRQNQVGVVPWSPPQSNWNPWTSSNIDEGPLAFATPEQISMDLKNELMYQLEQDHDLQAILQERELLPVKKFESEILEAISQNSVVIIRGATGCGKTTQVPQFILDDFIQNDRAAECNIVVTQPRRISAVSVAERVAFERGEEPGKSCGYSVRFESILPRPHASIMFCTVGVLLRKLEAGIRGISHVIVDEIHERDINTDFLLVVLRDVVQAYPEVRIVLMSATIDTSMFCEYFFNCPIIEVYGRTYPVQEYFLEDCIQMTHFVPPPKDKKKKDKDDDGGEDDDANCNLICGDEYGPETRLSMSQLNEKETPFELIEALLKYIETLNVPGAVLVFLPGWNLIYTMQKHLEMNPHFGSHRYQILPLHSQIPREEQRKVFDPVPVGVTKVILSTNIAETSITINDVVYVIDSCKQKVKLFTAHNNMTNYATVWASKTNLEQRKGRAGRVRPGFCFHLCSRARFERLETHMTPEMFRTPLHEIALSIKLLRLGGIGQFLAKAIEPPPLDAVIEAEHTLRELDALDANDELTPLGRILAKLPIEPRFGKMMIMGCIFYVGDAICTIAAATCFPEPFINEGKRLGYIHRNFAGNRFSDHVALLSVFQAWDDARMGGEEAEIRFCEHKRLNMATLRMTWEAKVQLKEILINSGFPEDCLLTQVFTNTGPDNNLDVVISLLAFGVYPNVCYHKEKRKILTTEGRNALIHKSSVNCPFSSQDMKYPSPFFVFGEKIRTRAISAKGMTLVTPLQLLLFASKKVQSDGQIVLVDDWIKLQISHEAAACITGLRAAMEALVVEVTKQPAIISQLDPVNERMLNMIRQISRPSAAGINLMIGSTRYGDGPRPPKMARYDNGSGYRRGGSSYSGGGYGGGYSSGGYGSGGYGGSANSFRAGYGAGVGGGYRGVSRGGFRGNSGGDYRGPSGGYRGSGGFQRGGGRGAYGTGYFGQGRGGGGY
UniProt Q00987: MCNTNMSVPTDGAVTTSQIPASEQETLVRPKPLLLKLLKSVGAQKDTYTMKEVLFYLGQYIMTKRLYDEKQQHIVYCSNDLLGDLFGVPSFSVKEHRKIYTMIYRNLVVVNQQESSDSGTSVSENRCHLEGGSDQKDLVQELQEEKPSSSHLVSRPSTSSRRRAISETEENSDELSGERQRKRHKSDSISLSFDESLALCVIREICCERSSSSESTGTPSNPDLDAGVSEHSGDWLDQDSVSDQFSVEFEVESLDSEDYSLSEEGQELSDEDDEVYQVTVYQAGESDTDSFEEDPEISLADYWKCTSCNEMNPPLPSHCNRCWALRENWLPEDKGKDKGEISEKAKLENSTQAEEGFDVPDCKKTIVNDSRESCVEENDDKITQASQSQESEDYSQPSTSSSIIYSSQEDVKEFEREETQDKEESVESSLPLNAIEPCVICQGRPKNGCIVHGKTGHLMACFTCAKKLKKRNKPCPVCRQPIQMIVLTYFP
UniProt Q86TM6: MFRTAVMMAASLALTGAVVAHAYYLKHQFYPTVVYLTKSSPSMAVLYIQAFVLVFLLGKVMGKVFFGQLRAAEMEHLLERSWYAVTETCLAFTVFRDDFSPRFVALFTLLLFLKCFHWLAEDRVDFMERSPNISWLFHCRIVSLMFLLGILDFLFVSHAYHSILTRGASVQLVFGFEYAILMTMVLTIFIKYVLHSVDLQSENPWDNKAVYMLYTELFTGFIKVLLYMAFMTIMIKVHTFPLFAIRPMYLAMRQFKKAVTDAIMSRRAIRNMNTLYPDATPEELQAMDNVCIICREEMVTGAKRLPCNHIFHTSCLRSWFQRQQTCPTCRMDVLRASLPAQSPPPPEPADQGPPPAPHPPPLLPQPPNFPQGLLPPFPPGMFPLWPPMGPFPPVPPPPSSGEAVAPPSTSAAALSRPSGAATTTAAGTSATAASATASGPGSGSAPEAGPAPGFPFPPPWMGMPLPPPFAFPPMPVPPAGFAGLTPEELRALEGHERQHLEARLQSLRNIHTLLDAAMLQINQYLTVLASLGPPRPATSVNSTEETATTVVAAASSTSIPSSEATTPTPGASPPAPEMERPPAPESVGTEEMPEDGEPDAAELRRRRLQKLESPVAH

No constants are given. Whether binding was seen depends on the method and setting. Binding seen in cells or lysates may run through a third protein. Some binding calls cover weakened binding; strength is not graded here.

This assay addresses DHX9 (DExH-box helicase 9) (human (endogenous in AGS and HGC-27)) (UniProt Q08211). The assay can be described thus: co-IP; endogenous proteins, GC cell lysate; immunoprecipitation with a DHX9 antibody, immunoblotting for MDM2 and SYVN1 (Fig. 5B). Background: A western blot detects proteins with antibodies after separation by electrophoresis.

As to “E3 ligase MDM2 (from UniProt Q00987 1-491)”, the binding result is “binds”.
For SYVN1 (from UniProt Q86TM6 1-617), the binding result was “no binding”.
